In the supplement of paper PMC11383711:
The other results are listed elsewhere or left out. Binding of human antibodies (heavy:light variable regions, tested as scFv in one mRNA-display pool) to influenza hemagglutinin, with or without the stem antibody CR9114 bound first. Score = (mean enrichment − median) / interquartile range of that screen; higher = more enriched, 0 = typical non-binder. Active = above the paper's cut-off per screen: stems 28; unblocked H1 Solomon Islands 5, H1 Michigan 3, H3 5, H5 19, H7 2.85, both B 5; blocked 9, 7, H5 10, H7 10, B Phuket 10, B Lee 11.5. Scores are scaled within each screen and are no affinities; replicates correlate at about 0.6 to 0.9, and antibodies rare in the pool are noisier.

B1: AG13-3B01 (protein)
chain 1: VQLVESGGGLVKPGGSLRLSCAASGFTFSDYYMTWIRQAPGKGLEWVSYIDSWSTYTDYPDSVKGRFTVSRDNAKNSLYLQMNSLRADDTAVYFCARDRGDCSRTTCSFDSWGQGTLVTVSS
chain 2: EIVMTQSPATLSVSPGERATLSCRASQSVSSYLAWYQQKPGQAPRLLIYGASTRATGIPARFSGSGSGTEFTLTISSLQSEDFGIYYCQQYSDWPLTFGGGTKVEIK
B2: K77-2D08 (protein)
chain 1: EVQLVESGGGVVQPGGSLRLSCAASGFSFSSHDMHWVRQAPGKGLEWVAFIRYDGSNEYYADSAEGRFAVSRDNSKNTLSLQLNSLRSDDTAVYYCANAADEWGGGLQHDYWGPGTLVIVSS
chain 2: QSALTQPASVSGSPGQSITISCTGGSFDVGGYNYISWYQQHPGKAPRLIIYGVTKRPSGVSTRFSASKSGATASLTISGLQAEDEAEYHCSSYTASTTWVFGGGTKLTV
B3: R95-2F07 (protein)
chain 1: EVQLVESGGGLVQPGRSLRLSCAASGFSFDDYAMHWVRQTPGKGLEWVSGISWNSGSIGYADSVKGRFTISRDNAKNSLYLQMNSLRAEDTALYYCTKDMNRGCDSINCYNYYYYYYGMDVWGQGTTVTVSS
chain 2: QSVLTQPPSVSGAPGQRVTISCTGSSSNIGAGYDVHWYQQLPGTAPKLLIYGNTNRPSGVPDRFSGSQSGTSASLAITGLQAEDEADYYCQSYDSSLSGSLFGGGTKLTV
B4: R95-1C11 (protein)
chain 1: LVQLKESGPGLLRPSETLFLTCSVSGGSIRDTSYFWGWVRQPPGKGLEWIGNVYYSGTTYYKPSLKSRVTISVDTSKNQFSLNLSSVTAADTAVYYCASLHTVAPSFWGQGTLVTVSS
chain 2: SYELTQPPSVSVSPGQTASITCSGNKLGDKFVCWFQQKPGQSPVVVIYQDTMRPSGIPERFSGSNSGNTATLTISGTQAMDEGDYYCQVWDSSTVVFGGGTKLTVL
B5: AG12-3D05 (protein)
chain 1: VQLVESGAEVKKPGESLRLSCQASGYNFTDSWISWVRQVPGKGLEWMGRIDPEDSYTNYSPSFQGRVTISADTSITTAYVQWRSLRPSDTAIYFCGRYSVGRKADYWGQGTLVTVSS
chain 2: DIVMTQSPLSQPVTLGQPASISCRSSQSLVYTDGNIYLNWFQQRPGQAPRRLIYKVFNRDSGVPDRFSGSGSGTDFTLKISRVEAEDVGVYYCMQGTHWPYTFGQGTKVEIK
B6: antibody 1F05 (protein)
chain 1: VQLVESGGGLVKPGGSLRLSCAGSGFIFRTYFMSWVRQAPGKGLEWVASINNNGLYIYYSESVEGRFTISRDNAENSVYLQMDSLRADDTALYYCSRGPWEDYDSNTYRTFDYWGQGTLVTVSS
chain 2: DIQMTQSPSTLSASLGARVTISCRASQNIAPWLAWYQQKPGEAPKLLIYKTSNLESGVPSRFSGSGSGTEFTLAISSLQPDDFATYYCQQYNSYPWTFGQGTKVEIK
B7: antibody 1F04 (protein)
chain 1: VQLLESGGGLVQPGGSLRLSCAASGLTFSNYAMSWVRQAPGKGLEWVSVIYSSGSGTWYADSVKGRFTISRDNSKNTLYLQMISLRAEDTAVYYCAKDRIAGSWVDAFDMWGQGTMVTVSS
chain 2: DIQMTQSPSSLSASVGDRVTVTCQASQDFSNSLNWYQQKPGKAPKLLIYGASNLETGVPSRFSGSGSGTHYTFTINSLQPEDIATYYCQQFKAFGQGTKVEIK
B8: AG13-3E04 (protein)
chain 1: VQLLESGGGLVQPGGSLRLSCTASGFTFNNYAMNWVRQAPGKGLEWVSSLSGGGRNIYYADSVKGRFTISRDNFKNTVYLQMNSLRAEDTAIYYCAKPAPMMVVVKNWFDTWGQGTLVTVSS
chain 2: EIVMTQSPATLSVSPGERATLSCRASQSVSANLAWYQQKPGQTPRLLIYDASTRATGIPARFSGSGSGTHFTLTISSLQSEDFAIYYCQQYKDWPPWTFGQGTKVEIK
B9: S5V2-52-Ig (protein)
chain 1: SGPGLVKPSETLSLTCTVSGDSVNNKIYYWSWIRQTAGRGLEWIGSLSASGSSNYNPSLKSRVTILLHTSENQFSLKLTSVTAADTAVFYCARGGIEDLFLGTSNQRIWYFDVWGRGTQVTVSS
chain 2: SASVGDRVTITCRASQSIGDSLNWYQQKSGRAPNLLMYAASNLQSGVPSRFSGSGSGTDFTLTISSLQPEDFAIYYCQHQVSFGRGTKLEI
B10: W85-2C10 (protein)
chain 1: EVQLVESGGGVVQPGRSLRLSCAASGSTFSDRAMHWVRQAPGRGMEWIGFILFHGTNNYHADSVKGRFTISRDNSKNTLYLQMNSLRTEDTAMYYCARDRGAAVVDLTAEAFDLWGQGTMVTVSS
chain 2: DIQMTQSPSSLSASVGDRVTITCRASQGIRNWLAWYQQKPGKAPRSLIYAASTLQSGVPSRFIGSGSGTDFTLTIRGLQPEDFATYFCQQYDSYPLTFGGGTKVEI
B11: C2-3-G03 (protein)
chain 1: VQLVESGGRLVQPGGSLRLSCAASGFIFSNYWMHWVRQAPGKGLVWVSRINSDGSSIVYADSVKGRFTVSRDNAKNTLYLQMNSLRAEDTAVYYCAREPYHPPQFDYWGQGTLVTVSS
chain 2: DIQMTQSPSSLSASVGDRVTITCRASQGIDTYLNWYRQQPGRPPKLLIYSAANLPSGVPSRFSGSGSGADFTLTISGLQPEDFATFYCQQSYRSPPTFGGGTKVEIK
B12: W85-1H07 (protein)
chain 1: EVQLVESGGGLVKPGGSLRLSCAASGFHFSGYSMNWVRQAPGKGLEWVASISGSVSDIHYADSVKGRFTISRDNARNSLYLQMTSLRAEDTALYYCVRDSYNWNDREFDPWGQGTLVTVSS
chain 2: DIQMTQSPSSLSASVGDRVTFSCRASQSISIYLNWYQQKPGKAPKLLIYAASSLQTGVPSRFSGSGSGTDFTLSISSLQLEDFATYYCQQSYTTPPTFGQGTKVEVK
B13: 100F4 (protein)
chain 1: QLQLQESGLGLVKPSETLSLTCTVSGDSVSSGSYYWSWLRQPPGKGLEWIGNMHGSGHTNYNPSLKSRVTITPDTSKNHFSLRLSSVTAADTAVYYCARALLTTVTTFEYWGQGTLVTVSS
chain 2: QSVLTQPPSVSGAPGQRVTISCTGGSSNIGAGYSVHWYQQLPGTAPKLLIYGSNSRPSGVPDRFSGSKSGTSASLAITGLRPEDEADYYCQSYDSSLSGSQVFGAGTRVTVL
B14: R95-2A05 (protein)
chain 1: QVHLEQSGAEVKKPGASVKVSCKVSGHTLTELSMHWVRQAPGKGLEWVGGFDPEVGKPVYAQNFQGRITMTEDTIWDTAYMELSSLKSEDTAVYYCATGTRAGLPTPLYYYGMDFWGQGTPVTVSS
chain 2: EIVMTQSPATLSVSPGERATLSCRASQGVSSDVVWYQQKPGQAPRPLIYGASTRATGVPGRFTASQSGTEFTLTISSLQSEDFAVYYCQQYNKWPLTFGGGTRVEL
B15: antibody 3E02 (protein)
chain 1: VQLVESGGGVVQPGRSLRLSCATSGFIFSRYAIHWVRQAPGKGLEWVAVISNDGTKEECADSVKGRFTISRDNSKSTLYLQMNSLRAEDTAVYYCARDATQYGYETNWFFDSWGRGLLVTVSS
chain 2: SYELTQPASVSVSPGQTANITCSGDKLGDKYTSWYQQKPGQAPVLVIYQDTKRPSGIPERFFGSSSGDAATLTISGTQAMDEADYYCQAWVWDSRVVFGGGTKLTVL
B16: 019-10-4A03 (protein)
chain 1: EVQLVESGGGVVKPGGSLRLSCAASGIDFFNAWMSWVRQAPGKGLQWVGHIRSLTDGGTTDYAAPGKGRFTISRDDSQNTLYLQMESLRTDDTAVYYCTTDYGDYLNGGRWGQGTLVTVSS
chain 2: DIVMTQSPLSLSVTPGEPASISCRSSQSLLRNNEFNYLDWYLQKPGQSPQVLIYFGSHRASGVPDRFSGSGSGTSFTLRINRVEAEDVGVYYCMQALQTPYTFGQGTKVEIK
B17: R95-1E05 (protein)
chain 1: QVQLVQSGPEVKKPGSSVKVSCKASADTFSSYGFSWVRQAPGQGFEWMGGIIPAFGTTNYPQRFQDRVTITADESTRTVYMELSSLRSEDTAMFYCARDSPPWGDVNNNDAFDIWGQGTMVTVSS
chain 2: DVVMTQSPLSLPVTLGQPASISCRSSQSLVYTDGNTYLNWFQQRPGQSPRRLIYKVSNRDSGVPDRFSGSGSGTDFTLKISRVEAEDVGVYYCMQATDWPSITFGQGTRLEIK
B18: R95-1A04 (protein)
chain 1: LVQLQESGPGLVKPSETLSLTCTVSGYSINTGYYWGWIRQPPGKGLQWIGSIYYSGRTHYNPSLRSRVTIFLDTSKNQFSLKLRSVTAADTAVYYCARWWSSSGGSNWFDPWGQGTLVTVSS
chain 2: SYELTQPPSVSVAPGQTARITCGGDNIESKSVHWYQQKPGQAPALVVYDDSDRPSGIPERYSGSNSGNTATLTISRVEAGDEADYYCQVWDGSGDQALVLFGGGTKLTVL
B19: antibody 3D04 (protein)
chain 1: EVQLVESGGGVVQPGRSLRLSCAPSGFTFDIYAMQWVRQAPGKGLEWVAFVSYDGSIKNYADSVKGRFTISRDKYLEMNSLRPEDTAVYFCARGRVAYCTTDCYHAFDIWGQGTMVTVSS
chain 2: SYELTQPHSVSVAPGQTATITCGGDYIERKSVHWYQQKPGQAPVLVVYDDSDRPSGIPERLSGSNSGNTATLTISRVEGGDEADYYCQVWDSSCDCWVFGGGTKVTVL

What was measured:
[1] = molecular target: H1 HA stem construct (mini-HA #4900); test: mRNA display binding score; higher = more enriched on the antigen; details: antigen blocked with: nothing
Protocol: (§1)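 A pool of natively paired antibodies, displayed as scFv on mRNA, was selected once on antigen-coated beads and sequenced before and after; two replicates.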

[2] = molecular target: H3 HA stem construct (H3ssF); test: as above; details: antigen blocked with: nothing
Protocol: as §1

| Binder | mRNA display binding score [1] | mRNA display binding score [2] |
| --- | --- | --- |
| B1 | inactive: 0.842 | inactive: 5.08 |
| B2 | inactive: -0.0667 | inactive: 2.88 |
| B3 | inactive: -0.000898 | inactive: 0.755 |
| B4 | inactive: -0.985 | inactive: 2.74 |
| B5 | inactive: 0.0706 | inactive: 0.117 |
| B6 | inactive: 1.88 | inactive: 2.04 |
| B7 | inactive: -0.594 | inactive: 0.423 |
| B8 | inactive: 0.178 | inactive: 0.46 |
| B9 | inactive: -0.617 | inactive: 0.299 |
| B10 | inactive: 0.166 | inactive: -0.111 |
| B11 | inactive: -0.669 | inactive: 1.34 |
| B12 | inactive: -0.426 | inactive: -0.445 |
| B13 | inactive: -1.03 | inactive: -0.763 |
| B14 | inactive: -1.28 | inactive: -0.74 |
| B15 | inactive: -0.045 | inactive: -0.448 |
| B16 | inactive: 0.748 | inactive: 0.0127 |
| B17 | inactive: -0.939 | inactive: -0.753 |
| B18 | inactive: -0.87 | inactive: -0.172 |
| B19 | inactive: -1.15 | inactive: 0.653 |
